Test results reported in PubChem BioAssay AID493208 (National Center for Advancing Translational Sciences (NCATS), 2011).
The whole screen tested about 44,000 compounds, of which about 340 (0.77%) were called active. Another 5% or so got no clear call; they are omitted. The call rests on the fitted dose curve; in most records, active means well fitted inhibition curve with a large enough effect; inconclusive means small, poorly fitted or top-dose-only effect; inactive means flat fitted curve, though single readings scatter. This is one part of the list.

Experiment: Acumen qHTS Assay for Inhibitors of the mTORC1 Signaling Pathway in MEF (Tsc2-/-, p53-/-) Cells: Sytravon;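 further: plate controls were DMSO for no effect and rapamycin for full effect; nearly all actives have a fitted effect of over 50% in size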
Conditions: phospho-rpS6 immunofluorescence/PI, 24 h; series mostly up to 38.3 µM; activity change, negative = inhibition: at the top concentration
Summary of the method: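 Read-out: phospho-S6 Alexa-488 intensity over PI intensity per well, scored as % active cells using thresholds from rapamycin (7.5 nM) and DMSO controls. Tsc2-/-, p53-/- MEFs exposed to compound for 24 h; PI cell count recorded as viability.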

Activity change, negative = inhibition, inactive:
O=C(Nc1ccc(F)cc1F)c1cc(-c2ccccc2O)no1 -3.04%
Cc1nn2c(=O)cc(COC(=O)c3ccc(NC(=O)C4CCCCC4)cc3)nc2s1 0%
CCCCOC(=O)c1ccc(NC(=O)c2cc3c(=O)n4cccc(C)c4nc3n2C)cc1 8.19%
O=C(COc1ccccc1Cl)Nc1ccc2oc(-c3ccccc3F)nc2c1 -1.3%
COCCNC(=O)CCCn1c(=O)c2cc(OC)c(OC)cc2n(CC(=O)Nc2ccc(F)cc2)c1=O 6.52%
Cc1ccc(NC(=O)C(NS(=O)(=O)c2ccc3c(c2)CCC(=O)N3)c2ccccc2)cc1C (centres undefined) 3.83%
O=C(CSc1nc(=O)[nH]c2c1CCCC2)Nc1ccccc1C(F)(F)F 0.327%
CCOC(=O)C1CCN(CCC(=O)Nc2ccc(Br)c(C)c2)CC1 3.25%
CCOc1ccc(CNC(=O)c2ccc(-c3nc(CS(=O)(=O)c4ccccc4)c(C)o3)cc2)cc1 -1.64%
COc1ccc(Nc2cc(C(=O)NC3CCCC3)c3ccccc3n2)c(OC)c1 0.657%
CCNC(=O)Cn1c(-c2cccs2)cc2ccccc21 -15.5%
Cc1ccc(CN(C(=O)Nc2cccc(Cl)c2)c2ccccn2)cc1 -10.3%
COc1ccc(NC(=O)c2nnn(Cc3nc(-c4cc(Br)ccc4OC)oc3C)c2C)cc1 -11.4%
CCOc1cccc(C2c3c(oc4ccc(F)cc4c3=O)C(=O)N2CCc2ccc(OC)cc2)c1 (centres undefined) 10.3%
Cc1oc(C)c2c(=O)cc(-c3ccc4c(c3)OCO4)cc(OC(=O)c3ccccc3Br)c12 -2.6%
COc1ccc(NC(=O)C2CCN(S(=O)(=O)c3ccc4c(c3)CCCC(=O)N4)CC2)cc1Cl -6.99%
Cc1ccc(Cn2c(-c3ccccc3)nc3ccccc32)cc1 -7.28%
COc1cc(/C=C(\C#N)c2nc3ccccc3c(=O)[nH]2)cc(OC)c1OC -5.42%
Cc1ccc(-c2nc3ccccc3n3c(-c4ccccc4)c4c(=O)n(C)c(=O)n(C)c4c23)cc1 4.18%
COc1ccc(S(=O)(=O)N2CCN(c3ccccc3OC)CC2)cc1-c1noc(C)n1 -2.79%
COc1cc(OC)c(NC(=O)c2cc(CN3CCOCC3)on2)cc1Cl -5.54%
Cc1ccc(C)c(Cn2c(=O)n(CCCCC(=O)NCc3ccccc3Cl)c(=O)c3ccccc32)c1 1.81%
CCn1ccc2cc(S(=O)(=O)N3CCC(C(=O)NCc4cccc(C)c4)CC3)ccc21 0.618%
CCCCNC(=O)c1cc(Sc2ccc(OCC)cc2)nc2ccccc12 14%
CCOc1ccccc1NC(=O)Cn1ccn(-c2ccccc2)c(=O)c1=O 5.3%
CCn1cc(C(=O)NCc2ccc(C)cc2)c(=O)c2cc(S(=O)(=O)N3CCC(C)CC3)ccc21 -3.94%
O=C(NCCSCc1ccc(Cl)cc1)C1CCN(S(=O)(=O)Cc2ccccc2)CC1 1.53%
Cc1ccc(-c2c(C(=O)Nc3ccc(F)c(F)c3)oc(=O)c3ccccc23)cc1 -0.0361%
CN(C)c1ccc(CNC(=O)c2cc3cc(S(=O)(=O)N4CCCCC4)ccc3n2C)cc1 0%
O=C(CN1C(=O)C2CCCCN2c2ccc(C(=O)N3CCCC3)cc21)NCc1cccc(Cl)c1 (centres undefined) 3.82%
Cc1ccc(Cl)c2sc(NC(=O)CS(=O)(=O)c3ccc(Cl)cc3)nc12 -5%
CCOc1ccc(CNS(=O)(=O)c2c(C(=O)N3CCCCCC3)c(C)n(C)c2C)cc1OC 0%
Cc1ccc(NC(=O)Nc2nnc(N3CCCC3)s2)c(C)c1 1.16%
Cc1ccc(CNC(=O)Cc2coc3cc(C)cc(C)c23)cc1 4.9%
COc1ccc(-c2cn3nc(N4CCC(C(=O)Nc5cccc(Cl)c5)CC4)sc3n2)cc1 -5.68%
CCCCN(C)C(=O)C1CCCN(c2ncnc3onc(-c4ccc(F)cc4)c23)C1 (centres undefined) 0.67%
CCN(CC)S(=O)(=O)c1ccc2c(c1)c(=O)c(C(=O)NCc1ccccc1)cn2C -7.77%
COc1ccc(CNC(=O)CCC(=O)N2CC3CCCN3c3ccccc32)cc1 (centres undefined) 2.9%
COc1ccccc1CNC(=O)c1ccc(CS(=O)(=O)c2ccccc2C)o1 -2.48%
O=C(NCc1ccccc1)c1ccc(NC(=O)c2nsc3ccccc23)cc1 -17.5%
COc1cc(CN(CC2CCCO2)C(=O)c2ccc(F)cc2)cc(OC)c1OC (centres undefined) 1.98%
CC(=O)N1CCCc2cc(S(=O)(=O)N3CCC(C(=O)NCc4ccc(N(C)C)cc4)CC3)ccc21 -11.2%
CCOc1cccc(CC(=O)Nc2ccc3nc(N4CCCCC4)cc(C)c3c2)c1OCC -9.16%
CCCNC(=O)c1ccc(-n2c(-c3ccccc3)cc3c2CCCCC3)cc1 -18.3%
Cn1c(=NC(=O)c2ccc3c(c2)OCCO3)sc2cc(S(C)(=O)=O)ccc21 2.83%
COc1ccccc1CNC(=O)C(CC(C)C)NS(=O)(=O)c1ccc2c(c1)oc(=O)n2C (centres undefined) -4.41%
Cc1ccccc1-c1noc(C(C)NC(=O)c2ccco2)n1 (centres undefined) 4.09%
CCC(=O)N1CCc2cc(S(=O)(=O)NCCC(=O)NCc3ccccc3Cl)ccc21 3.57%
CCOC(=O)c1ccc(NC(=O)C2CCCN(c3ccc(Sc4ccc(C)cc4)nn3)C2)cc1 (centres undefined) -8.12%
Cc1cc(Br)ccc1NC(=O)CCS(=O)(=O)c1cccc2nsnc12 0%
CC(=O)NCCNc1nc2c(S(=O)(=O)c3ccc(C)c(C)c3)nnn2c2ccc(Cl)cc12 -1.41%
COC(=O)c1ccc(-n2nnc(-c3nc(-c4ccc5c(c4)OCO5)no3)c2C)cc1 -5.65%
CC(C)c1nc2ccc(C(=O)NCCCN3CCN(c4ccccc4F)CC3)cc2o1 0.104%
CCN(C(=O)CN(C)S(=O)(=O)c1ccc2c(c1)c(=O)n(C)c(=O)n2C)c1ccc(OC)cc1 -9.94%
Cc1ccc(C(C)C)c(OCC(=O)Nc2ccc(S(=O)(=O)Nc3onc(C)c3C)cc2)c1 0.617%
CCOc1ccc2nc(NC(=O)CS(=O)(=O)c3ccc(Cl)cc3)sc2c1 2.59%
Cc1ccc(C2c3c(oc4ccccc4c3=O)C(=O)N2c2ccc(C)cn2)cc1 (centres undefined) 1.11%
N#Cc1ccc(CN2C(=O)c3ccccc3Sc3ccc(C(=O)OCc4ccco4)cc32)cc1 -0.607%
COc1ccc(NC(=O)c2cc3nc(-c4ccc(Cl)c(Cl)c4)cc(C(F)(F)F)n3n2)c(OC)c1 1.38%
CCOc1ccccc1NC(=O)N1CCC(n2c(C)nc3cccnc32)CC1 4%
Cc1sc2ncn(CC(=O)Nc3ccc(F)cc3F)c(=O)c2c1S(=O)(=O)N1CCC(C)CC1 -5.06%
COc1ccc(-n2nc3c(N4CCCC(C(=O)NCc5ccc(C)cc5)C4)nnc(C)c3c2C)cc1 (centres undefined) -19%
Cc1c(-c2nnc(SCC(=O)Nc3ccccc3F)o2)nnn1-c1ccc(F)cc1 -0.823%
COc1ccc(CNC(=O)CCc2cn(C)c3ccccc23)cc1 3.64%
Cc1ccc(CCNC(c2ccc(F)cc2)c2nnc(-c3ccccc3Cl)o2)cc1 (centres undefined) -22.3%
COc1cccc(N2CCN(S(=O)(=O)c3cn(C)c(C)n3)CC2)c1 -3.92%
CCn1c(C(=O)N2CCC(C(=O)N3CCN(c4cc(C)ccc4C)CC3)CC2)cc2sccc21 -6.15%
COc1ccc(CNC(=O)c2ccc3nc(CCc4ccccc4)oc3c2)cc1OC -7.81%
CCOc1ccc(CNC(=O)c2cccc(NC(=O)N3CCSc4ncccc43)c2)cc1 -0.882%
CC(=O)N1CCc2cc(S(=O)(=O)NC(CC(C)C)C(=O)Nc3ccc(C(C)C)cc3)ccc21 (centres undefined) 0.869%
CC(C)Cn1cc(NC(=O)Nc2cccc(C(F)(F)F)c2)c2ccccc2c1=O 0.325%
CCOC(=O)c1c(C)sc(-c2c(-c3ccc4c(c3)OCCO4)[nH]c3c2c(=O)n(C)c(=O)n3C)c1O -0.745%
Cc1cc(-c2ccc(C)c(S(=O)(=O)N3CCC(C)CC3)c2)on1 -1.14%
CC(=O)N1c2ccc(S(=O)(=O)N3CCCCCC3)cc2CC1C(=O)NC(C)C (centres undefined) 2.64%
CCOC(=O)N1CCc2c(sc3c2c(=O)n(Cc2ccccc2)c(=O)n3Cc2cc(C)ccc2C)C1 0.844%
CC(C)CC(=O)Nc1nc2c(s1)CC(C(C)(C)C)CC2 (centres undefined) 7.85%
CCc1nn(CCCC(=O)N2CCN(c3cc(Cl)ccc3C)CC2)c(=O)c2cc3occc3n12 -1.17%
COc1ccc(CC(=O)NC2CC(=O)N(c3cccc(F)c3)C2)cc1OC (centres undefined) -1.62%
CCOC(=O)c1c(C)n(S(=O)(=O)c2ccc(C)cc2C)c2ccc(NS(=O)(=O)c3ccc(C)cc3C)cc12 1.5%
COc1ccccc1Nc1sc(C(=O)c2ccc3c(c2)OCO3)c(N)c1S(=O)(=O)c1ccccc1 1.01%
Cc1ccc(C2=Nc3ccccc3N(CC(=O)Nc3ccccc3F)C(=O)C2)cc1C -23.2%
CCC1Oc2ccc(C)cc2N(CC(=O)NCc2ccc(OC)cc2)C1=O (centres undefined) 0.0473%
CCCCN1C(=O)c2[nH]nc(-c3ccccc3O)c2C1c1ccc(C(C)(C)C)cc1 (centres undefined) -3.26%
O=C(Nc1cccc(Cl)c1)c1ccc2nc(CCc3ccccc3)oc2c1 -13.2%
O=c1oc2ccccc2cc1-c1nnc(Nc2ccc(Cl)cc2Cl)s1 0.486%
CCN(CC)CCCNC(=O)Cc1ccc(NC(=O)N2CCCCc3ccccc32)cc1 -3.74%
Cc1nc(-c2ccccc2)sc1-c1ccc(SCC(=O)Nc2cccc(C(F)(F)F)c2)nn1 -3.64%
CCC(=O)N1CCc2cc(Br)cc(S(=O)(=O)N3CCC(C(=O)Nc4ccccc4CC)CC3)c21 0.563%
COc1cccc(C2CC(=O)Nc3cc4c(cc32)OCO4)c1OC(C)C (centres undefined) -21.2%
CC(=O)NC1CC(=O)N(c2ccc3c(c2)OCCO3)C1 (centres undefined) 1.34%
Cc1ccc(-c2nc3cc(Cl)ccc3o2)cc1NC(=O)c1cc([N+](=O)[O-])ccc1N1CCOCC1 -10.4%
COc1cc(OC)c(NC(=O)C2CCN(C(=O)c3sc4nc[nH]c(=O)c4c3C)CC2)cc1Cl -2.24%
CC(C)Oc1ccc(CNC(=O)C2CCN(c3nc4ccccc4nc3C(F)(F)F)CC2)cc1 -1.66%
COCCCNC(=O)c1cnc2c(-c3ccc(F)cc3)c(C)nn2c1C 2.29%
